Source: PubChem BioAssay AID1645882 (National Center for Advancing Translational Sciences (NCATS), 2021)
Screen size: about 16,000 compounds; about 120 (0.75%) were called active. About 4% were inconclusive and are not listed. The call rests on the fitted dose curve; in most records, active means well fitted inhibition curve with a large enough effect; inconclusive means small, poorly fitted or top-dose-only effect; inactive means no such curve, though single readings can be large or run the other way. Some of the results follow.

biological target: Rap guanine nucleotide exchange factor 3 (Homo sapiens) (UniProt O95398); assay: Validation qHTS for antagonist of cAMP-regulated guanine nucleotide exchange factor 3 (EPAC1); conditions: EPAC1 Rap1B-BODIPY-GDP exchange, fluorescence; series mostly up to 150 µM; activity change, negative = inhibition: at the top concentration;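 further: plate controls were DMSO for no effect and ATA control for full effect; nearly all actives have a fitted effect of over 75% in size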
In short: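 Nucleotide exchange followed as fluorescence loss when BODIPY-GDP leaves Rap1B (480 nm excitation, 540 nm emission), read at 5 min intervals over 30 min. Reaction: 100 nM EPAC1, 250 nM RAP1B-BODIPY-GDP, 50 uM GDP; ATA and DMSO define normalization.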

Sequence of UniProt O95398 (O95398 whole entry, looked up): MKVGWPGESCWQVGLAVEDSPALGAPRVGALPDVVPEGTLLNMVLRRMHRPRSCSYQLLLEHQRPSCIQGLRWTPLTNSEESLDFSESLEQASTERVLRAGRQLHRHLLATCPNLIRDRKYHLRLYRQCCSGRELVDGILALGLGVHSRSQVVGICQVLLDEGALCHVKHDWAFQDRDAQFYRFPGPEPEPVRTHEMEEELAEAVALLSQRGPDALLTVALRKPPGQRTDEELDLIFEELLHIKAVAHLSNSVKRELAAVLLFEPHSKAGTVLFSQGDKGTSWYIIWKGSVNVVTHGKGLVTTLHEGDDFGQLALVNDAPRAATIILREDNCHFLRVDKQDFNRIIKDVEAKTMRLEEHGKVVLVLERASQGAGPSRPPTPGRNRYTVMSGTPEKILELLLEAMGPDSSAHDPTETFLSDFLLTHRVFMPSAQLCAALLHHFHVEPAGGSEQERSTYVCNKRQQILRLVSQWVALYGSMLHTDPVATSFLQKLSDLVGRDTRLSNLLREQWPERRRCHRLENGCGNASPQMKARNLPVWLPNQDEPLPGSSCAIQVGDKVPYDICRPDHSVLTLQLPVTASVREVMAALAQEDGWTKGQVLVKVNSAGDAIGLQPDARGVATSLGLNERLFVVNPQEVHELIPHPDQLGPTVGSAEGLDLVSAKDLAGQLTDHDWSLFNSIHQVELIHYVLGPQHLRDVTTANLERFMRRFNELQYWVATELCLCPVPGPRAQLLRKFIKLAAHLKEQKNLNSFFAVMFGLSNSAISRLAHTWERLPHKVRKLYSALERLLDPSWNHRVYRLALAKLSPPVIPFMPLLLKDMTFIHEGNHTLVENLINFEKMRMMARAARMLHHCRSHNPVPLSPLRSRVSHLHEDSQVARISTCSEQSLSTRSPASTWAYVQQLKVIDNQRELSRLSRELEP

Row | SMILES | activity change, negative = inhibition
1 | COc1ccccc1CN1CCCC2(CCN(C(=O)c3csnn3)CC2)C1 | inactive: 8.84%
2 | O=c1c(-c2ccc(F)cc2)nc2cnc(N3CCNCC3)nc2n1C1CC1 | inactive: 14.2%
3 | O=c1c(-c2ccccc2)c1-c1ccccc1 | inactive: -28.7%
4 | O=c1oc2ccccc2cc1O | inactive: 12.3%
5 | CN(C)CCCN1c2ccccc2C(C)(C)c2ccccc21 | inactive: 13.5%
6 | CN(C)c1ncnc2ccc(-c3cccc(NS(C)(=O)=O)c3)cc12 | inactive: 9.36%
7 | COc1ccc(-c2nc3cnc(Nc4ccccc4)nc3n(C[C@H]3CCCO3)c2=O)cc1 | inactive: 38.8%
8 | C=C1CCC(=O)C(C)CCC2C1CC2(C)C (configuration not stated) | inactive: -5.43%
9 | N=C(N)c1ccc(OCCCCCOc2ccc(C(=N)N)cc2)cc1 (tested in a mixture with another compound) | inactive: 6.72% [at 75.8 µM]
10 | OCC(O)C(O)C(O)CO (configuration not stated) | inactive: 11.7%
11 | Cc1cccc2cc(CN(C(=O)c3ccc(C(F)(F)F)cc3)C3CC3)c(N3CCC(O)CC3)nc12 | inactive: -24.4%
12 | COc1cccc(Nc2ncc3nc(C)c(=O)n(Cc4cccs4)c3n2)c1 | inactive: 35.4%
13 | COc1cc(CNc2nc(C)c(-c3ccn(C4Cc5ccccc5C4)n3)s2)cc2c1OCO2 | inactive: -6.59%
14 | CSc1nnc(CNC(=O)c2cccc3ccccc23)n1-c1ccccc1C | inactive: -3.89%
15 | Cc1ccc(C(=O)N(Cc2cc3cc4c(cc3nc2N2CCOCC2)CCC4)CC2CCCO2)s1 (configuration not stated) | inactive: -15.6%
16 | O=C1CCCC2[C@@H]3CCC[N@+]4([O-])CCC[C@H](CN12)C34 (some centres not stated) | inactive: 19.8%
17 | C[N+]1(C)CCN(CC(O)(c2ccccc2)C2CCCCC2)CC1 (configuration not stated) | inactive: 1.98%
18 | COc1cc(=O)n2c(c1C(=O)NC(C)c1ccco1)CCN(C(=O)c1cc(C)cc(C)c1)CC2 (configuration not stated) | inactive: -3.94%
19 | FC(F)(F)c1ccccc1-c1cncnc1NCc1ccccc1 | inactive: 6.24%
20 | COc1cc(O)c(C(=O)c2ccccc2)cc1O | inactive: -2.11%
21 | CCn1cc(CN2Cc3ccccc3OC(c3ccccc3OC)C2)c(C)n1 (configuration not stated) | inactive: -5.33%
22 | COc1ccc2[nH]cc(CCNc3ncnc4ccc(-c5c(C)noc5C)cc34)c2c1 | inactive: -7.06%
23 | O.O=C([O-])CC([S-])C(=O)[O-].[Au+].[Na+].[Na+] (configuration not stated) | inactive: 31.1%
24 | Cn1c(=O)c(-c2ccccc2)nc2cnc(Oc3ccccc3)nc21 | inactive: 3.53%
25 | COc1ccc(CN2CCC3(CCC(CNC(=O)C4CCCO4)O3)CC2)c(C)c1C (configuration not stated) | inactive: 7.49%
26 | Cc1noc(C)c1C(=O)N1CCC2(CCCN(C(c3ccccc3)c3ccccc3)C2)CC1 | inactive: -17.5%

Row | SMILES | activity change, negative = inhibition
27 | O=C(O)CCc1cc(I)c(O)c(I)c1 | inactive: 24.3%
28 | Cc1ccc(C(C)C)c(O)c1 | inactive: 12.2%
29 | COCc1ccc(CN2CCOc3c(O)cc(-c4cc(C)c5ccc(F)cc5n4)cc3C2)o1 | inactive: -9.59%
30 | CC/C=C\C/C=C\C/C=C\CCCCCCCC(=O)O | inactive
31 | COc1c2c(cc3c1C(CC(O)C(C)C)N(C)CC3)OCO2 (configuration not stated) | inactive: 22.4%
32 | CC(=O)O[C@]1(C(C)=O)CC[C@H]2[C@@H]3C=C(C)C4=CC(=O)CC[C@]4(C)[C@H]3CC[C@@]21C | inactive: 11.6% [at 75.8 µM]
33 | C=C1[C@H](CO)[C@@H](O)C[C@@H]1n1cnc2c(=O)[nH]c(N)nc21 | inactive: 10.5%
34 | CN(C)c1ncc2nc(-c3ccc(F)cc3)c(=O)n(Cc3cccs3)c2n1 | inactive: 3.15%
35 | CCNC(=O)NCc1cccc(Cl)c1 | inactive: 4.76%
36 | NC[C@H]1O[C@H](O[C@H]2[C@H](O)[C@@H](O[C@H]3O[C@H](CO)[C@@H](O)[C@H](N)[C@H]3O)[C@H](N)C[C@@H]2N)[C@H](N)[C@@H](O)[C@@H]1O | inactive
37 | CS(=O)(=O)N1CCC2(CCCN(c3cccc(-c4ccccc4)c3)C2)CC1 | inactive: -2.81%
38 | CC/C=C(\C(=O)N[C@@H]1C(=O)N2C(C(=O)OCOC(=O)C(C)(C)C)=C(COC(N)=O)CS[C@H]12)c1csc(N)n1 | inactive
39 | COc1cccc2ccc(CN3CCC4(CC3)c3ccccc3[C@@H](NC(=O)c3ccccc3)[C@@H]4O)nc12 | inactive: 8.45%
40 | C=CC(C)(O)CCC=C(C)C (configuration not stated) | inactive: 6.67%
41 | Cc1ccccc1 | inactive: 2.34%
42 | Cc1cccc(C)c1NC(=O)CN1CCN(CCCC(c2ccc(F)cc2)c2ccc(F)cc2)CC1 | inactive: 0.0143% [at 75.8 µM]
43 | Cc1cccc(C2CN(C)CCc3c2cc(O)c(O)c3Cl)c1 (configuration not stated) | inactive: 14.2% [at 75.8 µM]
44 | COc1ccc(C(=O)N2CCC3(CCCN(c4ccc(-c5ccccc5)cc4)C3)CC2)cc1 | inactive: -0.713%
45 | Cc1c(C)c2c(c(C)c1O)CCC(C)(CCCC(C)CCCC(C)CCCC(C)C)O2 (configuration not stated) | inactive: -7.36%
46 | CS(=O)(=O)Nc1cccc(-c2ccc3ncnc(N4CCNCC4)c3c2)c1 | inactive: 10.8%
47 | COc1cc(C)c(Cc2cnc(N)nc2N)cc1OC | inactive: -9.71%
48 | COC(=O)N1CCC2(CCN(C(=O)Nc3cccc(C#N)c3)CC2)CC1 | inactive: 15.5%
49 | CC(C)NC(=O)N1CC[C@@]2(CCCN(C(=O)c3cc(C(F)(F)F)cc(C(F)(F)F)c3)C2)C1 | inactive: -6.21%
50 | CC(=O)N1CCC[C@@]2(CCN(C(c3ccccc3)c3ccccc3)C2)C1 | inactive: -7.28%
51 | C[C@@H](C[C@H](N)C(=O)O)C(=O)O | inactive: -10.1%
52 | CC(C)(S)[C@H](N)C(=O)O | inactive: -3.38%
